# Data as given in publication PMC4336329 (PLoS ONE, 2015).
# About 14,000 (4.5%) of roughly 310,000 compounds showed an effect of 50% or more. Effects have a minus sign here. Some of the results follow.
# Target: human ether-à-go-go-related gene (hERG) potassium channel (human, UniProt Q12809)
# Test: primary screen, population patch clamp on CHO cells stably expressing hERG
# 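Further: peak tail current of the secondary pulse compared with the same well before compound.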
# Sequence of human ether-à-go-go-related gene (hERG) potassium channel (Q12809 whole entry, looked up): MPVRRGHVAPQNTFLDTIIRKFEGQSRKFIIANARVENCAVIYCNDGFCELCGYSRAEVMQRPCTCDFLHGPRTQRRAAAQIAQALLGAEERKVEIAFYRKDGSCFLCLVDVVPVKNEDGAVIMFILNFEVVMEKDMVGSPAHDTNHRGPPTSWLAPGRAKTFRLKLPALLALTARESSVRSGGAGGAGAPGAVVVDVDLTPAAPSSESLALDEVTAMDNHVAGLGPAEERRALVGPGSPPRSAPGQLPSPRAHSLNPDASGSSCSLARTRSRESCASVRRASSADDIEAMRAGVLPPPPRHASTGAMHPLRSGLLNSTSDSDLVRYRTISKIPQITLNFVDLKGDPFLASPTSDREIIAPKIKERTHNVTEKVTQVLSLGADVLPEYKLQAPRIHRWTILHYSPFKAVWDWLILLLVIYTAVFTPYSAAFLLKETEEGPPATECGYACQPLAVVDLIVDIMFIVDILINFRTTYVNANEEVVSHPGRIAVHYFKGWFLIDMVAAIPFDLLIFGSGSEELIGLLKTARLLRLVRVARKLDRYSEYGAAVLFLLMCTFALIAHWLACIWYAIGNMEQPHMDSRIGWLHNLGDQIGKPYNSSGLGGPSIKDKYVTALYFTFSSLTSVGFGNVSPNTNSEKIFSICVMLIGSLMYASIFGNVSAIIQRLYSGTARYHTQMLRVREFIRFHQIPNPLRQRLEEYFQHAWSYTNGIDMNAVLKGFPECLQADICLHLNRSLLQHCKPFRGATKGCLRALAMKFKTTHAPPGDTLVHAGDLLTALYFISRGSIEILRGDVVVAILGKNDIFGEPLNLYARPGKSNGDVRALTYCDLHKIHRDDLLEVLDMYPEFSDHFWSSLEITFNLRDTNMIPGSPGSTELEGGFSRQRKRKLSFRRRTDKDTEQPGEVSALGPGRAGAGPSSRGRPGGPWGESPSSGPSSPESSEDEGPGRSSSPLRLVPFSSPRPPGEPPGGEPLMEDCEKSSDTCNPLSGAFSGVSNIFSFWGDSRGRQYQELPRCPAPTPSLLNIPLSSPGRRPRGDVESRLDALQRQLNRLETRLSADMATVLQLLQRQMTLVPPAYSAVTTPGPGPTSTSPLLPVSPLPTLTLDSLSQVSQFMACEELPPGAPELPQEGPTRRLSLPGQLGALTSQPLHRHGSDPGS
row,Compound,"hERG current change (%, negative = inhibition) at 10uM [%]"
1,Cc1cccc(OCC(=O)NC(C)C(=O)N/N=C/c2c(OCc3ccccc3)ccc3ccccc23)c1 (stereo not shown),-4.53
2,CCCc1cc2c(cc1NC(=O)c1ccco1)OCO2,3.55
3,Cc1ccc(C(=O)c2cn[nH]c2-c2ccccc2O)cc1,14.4
4,COCCSc1nnc(NC(=O)C(C)(C)C)s1,4.15
5,O=c1c2cn[nH]c2[nH]c(=S)n1-c1ccccc1F,24.8
6,Cc1ccc(S(=O)(=O)N2CCN(C(=O)COC(=O)COc3ccccc3)CC2)cc1,43.8
7,CSc1ccccc1OCc1cc(C(=O)NC(C)Cn2cncn2)no1 (stereo not shown),-2.35
8,CSCC[C@H](NC(=O)OC(C)(C)C)c1nnc(SCc2ccccc2)o1,-51.3
9,CCc1ccc(-n2cc(-c3ccc(F)cc3)[n+]3c2SCCC3)cc1.[Br-],-71.7
10,CC(C)CNS(=O)(=O)c1cc2c3c(c1)CC(=O)N3CCC2,11.6
11,O=c1cc(CO)occ1OCc1cccc(F)c1,-9.93
12,Cc1ccc2occ(CN3CCN(c4ccccc4)CC3)c(=O)c2c1,-34
13,COC(=O)c1ccc(-n2nnnc2SCC(=O)Nc2ccccc2OC)cc1,8.07
14,COc1cc(CNCc2cccs2)ccc1OCc1ccccc1.Cl,-31.8
15,Cc1cc(C)c2c(c1)cc(C)c1nnc(SCC(=O)Nc3cc(C)on3)n12,-1.35
16,COc1ccc(C(=O)NCCS(=O)(=O)N2CCCC2)cc1,-9.31
17,CC(C)OC(=O)c1ccc(NC(=O)C2C3CC4OC(=O)C2C4C3)cc1 (stereo not shown),8.54
18,CCCCn1c(SCC(=O)N2CCCC2)nnc1-c1ccccc1,5.34
19,c1ccc2c(CN3CCSCC3)cccc2c1,11.1
20,CC(NC(=O)CCOc1ccccc1)c1ccccc1 (stereo not shown),7.44
21,CC1CCN(Cc2nc(Cl)c3c4c(sc3n2)CCC4)CC1,-0.304
22,CCCCC(CCC(=O)Nc1cc([N+](=O)[O-])ccc1O)C(=O)O (stereo not shown),14

row,Compound,"hERG current change (%, negative = inhibition) at 10uM [%]"
1,CC(C)COc1cccc(-c2cc(C(=O)Nc3ccon3)c3ccccc3n2)c1,23.6
2,CC(C)N1C(=S)SC2CS(=O)(=O)C=C21 (stereo not shown),-5.07
3,Cc1cccc(N2C(=O)c3cccc4cccc(c34)C2=O)c1,20.4
4,CCc1ccccc1NC(=O)CN(c1cccc(OC)c1)S(C)(=O)=O,11.5
5,Cc1onc(C(=O)N2CCN(C(c3ccccc3)c3ccccc3)CC2)c1[N+](=O)[O-],-3.07
6,S=C(NCc1cccnc1)Nc1cccc2ccccc12,-9.3
7,CC(=O)N(CCC1(c2ccc(C)cc2)CCOC(C(C)C)C1)Cc1ccco1 (stereo not shown),-5.3
8,O=c1cc(O)n(-c2ccc(F)cc2)c(=S)[nH]1,11.3
9,O=C(Cc1ccccc1)N/N=C/c1ccc([N+](=O)[O-])s1,2.97
10,S=C(NCCc1ccccn1)Nc1cccc(Cl)c1,7.55
11,COc1ccc(OCC(=O)Nc2ccc(OC)c(S(=O)(=O)N3CCCCC3)c2)cc1,-18.6
12,O=C(Nc1nc2cc3c(cc2s1)OCO3)C1=COCCO1,0.541
13,NC(=O)c1ccc(C(=O)Nc2ccc([As](=O)(O)O)cc2)cc1,24.4
14,CCOc1cc(N2CCOCC2)c(OCC)cc1NC(=O)CSc1n[nH]c(N)n1,38.2
15,Cc1ccc(-n2c(=O)cc(N3CCN(C(=O)c4ccco4)CC3)[nH]c2=O)cc1,6.92
16,CO/N=C/NC(=O)c1c(OC)ccnc1Oc1ccccc1,1.7
17,Cl.O=C(O)C(c1ccccc1)N1CCCC1 (stereo not shown),8.93
18,O=C(NCC1CCCO1)c1nn2c(C(F)(F)F)cc(-c3ccco3)nc2c1Cl (stereo not shown),1.16
19,Cc1ccc(C(=O)NC2CCCC2)cc1S(=O)(=O)N1CCCCC1,-11.7
20,O=C1NC[C@@H](Cc2ccc(O)cc2)N(CCc2cccc3ccccc23)C1=O,0.501
21,COC(CNc1nc(SC)nc2sc3c(c12)CCN(C)C3)OC,-52.5
22,O=C(Nc1ccc(S(=O)(=O)Nc2nccs2)cc1)c1ccc(S(=O)(=O)N2CCOCC2)cc1,15

row,Compound,"hERG current change (%, negative = inhibition) at 10uM [%]"
1,Cn1c(=O)c([N+](=O)[O-])c(N2CCSCC2)c2ccccc21,-5.97
2,CCOC(=O)N1CCN(C(=O)c2cc(OCC)c(OCC)c(OCC)c2)CC1,-3.23
3,CCc1cc2c(COC(=O)CCNS(=O)(=O)c3cccc(C(F)(F)F)c3)cc(=O)oc2cc1O,-13.3
4,O=C(Nc1ccccc1N1CCN(c2ccccc2)CC1)c1cccc(F)c1,-8.05
5,CCN(CCCNC(=O)CNC(=O)Cn1cnc2ccccc2c1=O)c1ccccc1,2.96
6,CC(C)NC(=O)COC(=O)c1cc(Br)ccc1Cl,8.58
7,COCc1cc(C)nc(N/N=C/c2ccc(-c3cc(C(=O)O)ccc3Cl)o2)c1C#N,24.5
8,COCCNC(=O)C1CCC(=O)N1S(=O)(=O)c1ccc(C)cc1 (stereo not shown),17.6
9,Cn1c(-c2ccsc2)c(-c2cccs2)c2cc(-c3ccc4cc[nH]c4c3)ccc21,12.1
10,COc1ccccc1OCc1nc2ccccc2[nH]1,-1.03
11,CCc1nnc(NS(=O)(=O)c2ccc(N/C=C/C(=O)c3ccc(C)cc3)cc2)s1,13.5
12,CCc1ccc(OCCCC(=O)O)c(Br)c1,-0.471
13,O=S(=O)(c1ccc(C2CCCCC2)cc1)N1CCN(c2ncccn2)CC1,-1.38
14,CCC1(c2ccccc2)NC(=O)N(CC(=O)NCCN2C(=O)S/C(=C\c3cccnc3)C2=O)C1=O (stereo not shown),6.2
15,COC(=O)c1ccc2c(c1)C(C)(C)C(/C=C/c1ccc(OC)c(OC)c1OC)=[N+]2C.[I-],-2.88
16,C1CCc2nnc(-c3nnc4n3CCCCC4)n2CC1,4.11
17,Nc1nc(N)c2[nH]cnc2n1,-0.93
18,Clc1cccc(Oc2cnc3ccccc3n2)c1,-25.8
19,Cc1nccn1CCCN1C(=O)CNC1=S,1.54
20,CCCCOc1ccc(C(=O)NCC(=O)NCC(c2ccc(OC)cc2)N2CCOCC2)cc1 (stereo not shown),-14.1
21,O=C(Cn1nnc(N2CCCCC2)n1)c1ccc(Cl)c(Cl)c1,8.09
22,O=S(=O)(c1ccccc1)N1CCC(O)(CSc2ccccc2)CC1,15.6

row,Compound,"hERG current change (%, negative = inhibition) at 10uM [%]"
1,O=C(c1ccccc1Oc1ccccc1)N1CCN(c2ccccc2F)CC1,-26
2,COc1ccc(-n2cnnc2SCC(=O)c2cc(C)n(Cc3cccs3)c2C)cc1,-73.5
3,CCN1CCN(S(=O)(=O)c2cc(C)c(OC)cc2C)CC1,5.31
4,O=C(O)CC/C(=C\c1ccc(N2CCCC2)c([N+](=O)[O-])c1)c1nc2ccccc2s1,25.1
5,Cc1onc(-c2c(F)cccc2Cl)c1C(=O)NCCO,2.87
6,Cc1ccc2c(c1)N(CC(=O)N1CCN(c3nc4ccccc4s3)CC1)C(=O)C(C)O2 (stereo not shown),-54.5
7,COC(=O)C1=C(C)N(C)C(=O)NC1c1cc(Cl)cc(Cl)c1OC (stereo not shown),-5.7
8,COc1cc(NS(=O)(=O)c2ccc(NC(=S)NC(=O)c3sc4ccccc4c3Cl)cc2)nc(OC)n1,9.83
9,C=C(C)[C@@H]1[C@H]2OC(=O)[C@@H]1[C@]1(O)C[C@H]3O[C@]34C(=O)O[C@H]2[C@]14C.CC(C)(O)[C@@H]1[C@H]2OC(=O)[C@@H]1[C@]1(O)C[C@H]3O[C@]34C(=O)O[C@H]2[C@]14C,-3.34
10,CCCn1nnc(NC(=O)c2cccnc2Cl)n1,12.2
11,COCCN1CN=C(Nc2nc3ccccc3o2)NC1,13.5
12,COc1c2c(nc3ccccc13)OC(C(C)(O)COC(C)=O)C2 (stereo not shown),-12.7
13,CC(=O)O.N=c1ccn2c(n1)OC1C(O)C(CO)OC12 (stereo not shown),15
14,CCOC(CNC(=O)c1ccc(N2CCc3ccccc32)c([N+](=O)[O-])c1)OCC,-27.8
15,O=C(O)c1cc(N2CCOCC2)nc2ccccc12,17.4
16,COc1ccc(/C=N\Nc2ccc([N+](=O)[O-])cc2[N+](=O)[O-])c(C(=O)O)c1OC,-2.9
17,CCCn1ncc(CN2CCC(N3CCC(C(=O)N4CCOCC4)CC3)CC2)c1C,14.4
18,COc1ccc(C(=O)OCC(=O)Nc2cc(C)on2)cc1S(=O)(=O)N1CCOCC1,3.65
19,Cc1csc(SC(C)C(=O)Nc2ccc3c(c2)OCCO3)n1 (stereo not shown),6.25
20,NC(=O)C1=C[C@H](c2coc3ccccc3c2=O)C[C@H](OCc2ccc(CO)cc2)O1,-28
21,CCOC(=O)c1cc(C#N)c(N2CCN(C(=O)c3cccc(C(F)(F)F)c3)CC2)nc1C(F)(F)F,-0.761
22,Cc1cccc(CNC(=O)Cn2ccc3cc(S(=O)(=O)N4CCCCCC4)ccc32)c1,2.57
